The values that follow come from the supplement of paper PMC9588766.

Where a name gives a salt, the structure may show the parent alone. The full ranking holds about 1,900 compounds; the median of “cell viability of compound + 1 nM pemigatinib relative to pemigatinib-only (DMSO) wells” is about 0.95, and the lowest 2% start at about 0.22. Some of the results follow.

The assay deals with PDC-DUC18828. Kind of assay: cell viability of compound + 1 nM pemigatinib relative to pemigatinib-only (DMSO) wells (fraction); PDC-DUC18828 is a patient-derived cholangiocarcinoma cell line; higher = less growth inhibition. Particulars: first compound 1 µM; pemigatinib concentration 1 nM; 72 h. Here is the method: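 Selleck Bioactive library screen in the patient-derived FGFR2 fusion-positive ICC cell line PDC-DUC18828 (500 cells/well). Each compound was tested at 1 uM with 1 nM pemigatinib, in triplicate, for 72 h. Viability was read by CellTiter-Glo and normalised to plate DMSO controls. Value is the paper's averaged normalised viability.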
For the compound `CCCc1nc2c(C)cc(-c3nc4ccccc4n3C)cc2n1Cc1ccc(-c2ccccc2C(=O)O)cc1` [Telmisartan] + CCN1C(=O)N(c2c(F)c(OC)cc(OC)c2F)Cc2cnc3[nH]c(CN4CCOCC4)cc3c21 [pemigatinib], the cell viability was 1.02. As to `CCCCC1C(=O)N(c2ccccc2)N(c2ccccc2)C1=O` [Phenylbutazone] + CCN1C(=O)N(c2c(F)c(OC)cc(OC)c2F)Cc2cnc3[nH]c(CN4CCOCC4)cc3c21 [pemigatinib], the cell viability was found to be 0.972. To `Nc1ncnc2c1nc(Br)n2[C@@H]1O[C@@H]2COP(=O)(O)O[C@H]2[C@H]1O` [8-Bromo-cAMP] + CCN1C(=O)N(c2c(F)c(OC)cc(OC)c2F)Cc2cnc3[nH]c(CN4CCOCC4)cc3c21 [pemigatinib] belongs 1.01; to `COc1cc2ncnc(Nc3ccc(F)c(Cl)c3)c2cc1NC(=O)/C=C/CN1CCCCC1` + CCN1C(=O)N(c2c(F)c(OC)cc(OC)c2F)Cc2cnc3[nH]c(CN4CCOCC4)cc3c21 [pemigatinib], 0.91; to `NC(=O)Nc1sc(-c2ccc(F)cc2)cc1C(N)=O` + CCN1C(=O)N(c2c(F)c(OC)cc(OC)c2F)Cc2cnc3[nH]c(CN4CCOCC4)cc3c21 [pemigatinib], 0.85. As for `CC(C)(C)OC(=O)N[C@H]1CCCCC/C=C\[C@@H]2C[C@@]2(C(=O)NS(=O)(=O)C2CC2)NC(=O)[C@@H]2C[C@@H](OC(=O)N3Cc4cccc(F)c4C3)CN2C1=O` [Danoprevir (ITMN-191)] + CCN1C(=O)N(c2c(F)c(OC)cc(OC)c2F)Cc2cnc3[nH]c(CN4CCOCC4)cc3c21 [pemigatinib], the cell viability stood at 1.06. Next, `N=C(N)c1ccc(N=NNc2ccc(C(=N)N)cc2)cc1` [Diminazene Aceturate] + CCN1C(=O)N(c2c(F)c(OC)cc(OC)c2F)Cc2cnc3[nH]c(CN4CCOCC4)cc3c21 [pemigatinib]: 0.895; `C[C@H](CCC(=O)O)[C@H]1CC[C@H]2[C@@H]3C[C@H](O)[C@@H]4C[C@H](O)CC[C@]4(C)[C@H]3CC[C@]12C` [Hyodeoxycholic acid (HDCA)] + CCN1C(=O)N(c2c(F)c(OC)cc(OC)c2F)Cc2cnc3[nH]c(CN4CCOCC4)cc3c21 [pemigatinib]: 0.973; `CN1[C@@H]2CC[C@H]1C[C@@H](OC(c1ccccc1)c1ccccc1)C2` [Benztropine mesylate] + CCN1C(=O)N(c2c(F)c(OC)cc(OC)c2F)Cc2cnc3[nH]c(CN4CCOCC4)cc3c21 [pemigatinib]: 0.887.

Turning to `Cc1nn(C)c(COc2ccc(N3CCN(S(=O)(=O)N(C)C)CC3)cc2)c1-c1cccc2c(CCCOc3cccc4ccccc34)c(C(=O)O)n(CCN3CCOCC3)c12` + CCN1C(=O)N(c2c(F)c(OC)cc(OC)c2F)Cc2cnc3[nH]c(CN4CCOCC4)cc3c21 [pemigatinib], the cell viability was 0.984. Consider `CCCC(=O)Nc1ccc(OCC(O)CNC(C)C)c(C(C)=O)c1` (configuration not stated) [Acebutolol HCl] + CCN1C(=O)N(c2c(F)c(OC)cc(OC)c2F)Cc2cnc3[nH]c(CN4CCOCC4)cc3c21 [pemigatinib], for which the cell viability worked out at 0.931. With `C[C@@H]1O[C@@H](OC[C@H]2O[C@@H](Oc3c(-c4ccc(O)c(O)c4)oc4cc(O)cc(O)c4c3=O)[C@H](O)[C@@H](O)[C@@H]2O)[C@H](O)[C@H](O)[C@H]1O` [Rutin] + CCN1C(=O)N(c2c(F)c(OC)cc(OC)c2F)Cc2cnc3[nH]c(CN4CCOCC4)cc3c21 [pemigatinib], the cell viability came to 1.02. To `Nc1nccc2c1ncn2C1C=C(CO)C(O)C1O` (configuration not stated) [3-Deazaneplanocin A (DZNeP)] + CCN1C(=O)N(c2c(F)c(OC)cc(OC)c2F)Cc2cnc3[nH]c(CN4CCOCC4)cc3c21 [pemigatinib] belongs 0.668; to `Cc1nc(N(C)C(=O)Cc2ccc(-c3ccccn3)cc2)sc1S(N)(=O)=O` [Pritelivir (BAY 57-1293)] + CCN1C(=O)N(c2c(F)c(OC)cc(OC)c2F)Cc2cnc3[nH]c(CN4CCOCC4)cc3c21 [pemigatinib], 0.907. Consider `Cn1cc(/C=C/C(=O)c2cccc(F)c2)cc1/C=C/C(=O)NO` + CCN1C(=O)N(c2c(F)c(OC)cc(OC)c2F)Cc2cnc3[nH]c(CN4CCOCC4)cc3c21 [pemigatinib], for which the cell viability was determined as 1.03. As for `C/C(O)=C(\C#N)C(=O)Nc1ccc(C(F)(F)F)cc1` [Teriflunomide] + CCN1C(=O)N(c2c(F)c(OC)cc(OC)c2F)Cc2cnc3[nH]c(CN4CCOCC4)cc3c21 [pemigatinib], the cell viability is 0.943. Next, `COc1nc(C)cnc1NS(=O)(=O)c1cccnc1-c1ccc(-c2nnco2)cc1` [Zibotentan (ZD4054)] + CCN1C(=O)N(c2c(F)c(OC)cc(OC)c2F)Cc2cnc3[nH]c(CN4CCOCC4)cc3c21 [pemigatinib]: 1.05; `C[C@@H]1O[C@@H](O[C@H]2[C@H](Oc3cc(O)c4c(c3)O[C@H](c3ccc(O)cc3)CC4=O)O[C@H](CO)[C@@H](O)[C@@H]2O)[C@H](O)[C@H](O)[C@H]1O` [Naringin] + CCN1C(=O)N(c2c(F)c(OC)cc(OC)c2F)Cc2cnc3[nH]c(CN4CCOCC4)cc3c21 [pemigatinib]: 0.934; `N[C@@H](CC(=O)N1CCn2c(nnc2C(F)(F)F)C1)Cc1cc(F)c(F)cc1F` [Sitagliptin phosphate monohydrate] + CCN1C(=O)N(c2c(F)c(OC)cc(OC)c2F)Cc2cnc3[nH]c(CN4CCOCC4)cc3c21 [pemigatinib]: 0.891. As for `C[C@H]1COC2(CCN(c3nc(=O)c4cc(C(F)(F)F)cc([N+](=O)[O-])c4s3)CC2)O1` (racemic) [BTZ043 Racemate] + CCN1C(=O)N(c2c(F)c(OC)cc(OC)c2F)Cc2cnc3[nH]c(CN4CCOCC4)cc3c21 [pemigatinib], the cell viability amounted to 0.983. Regarding `Oc1ccc(Cc2nc3c(Cc4ccccc4)nc(-c4ccc(O)cc4)cn3c2O)cc1` [Coelenterazine] + CCN1C(=O)N(c2c(F)c(OC)cc(OC)c2F)Cc2cnc3[nH]c(CN4CCOCC4)cc3c21 [pemigatinib], the cell viability is 0.872.

Regarding `CC1(C)CC(=O)c2c(C(F)(F)F)nn(-c3ccc(C(N)=O)c(N[C@H]4CC[C@H](OC(=O)CN)CC4)c3)c2C1` + CCN1C(=O)N(c2c(F)c(OC)cc(OC)c2F)Cc2cnc3[nH]c(CN4CCOCC4)cc3c21 [pemigatinib], the cell viability came to 0.31.
